Reference: PubChem BioAssay AID504332 (National Center for Advancing Translational Sciences (NCATS), 2011)
Among all 350,000 compounds or so, about 31,000 (8.9%) were called active. Inconclusive results, whose numbers are uncertain, are shown with a selection of clear calls. The call rests on the fitted dose curve; in most records, active means well fitted inhibition curve with a large enough effect; inconclusive means small, poorly fitted or top-dose-only effect; inactive means no such curve, though single readings can be large or run the other way. Where the call is inconclusive, the potency comes from a doubtful curve fit.

target: Histone-lysine N-methyltransferase EHMT2 (Homo sapiens) (UniProt Q96KQ7); test: qHTS Assay for Inhibitors of Histone Lysine Methyltransferase G9a; settings: G9a H3K9 monomethylation, AlphaScreen, 2 h; activity, negative = inhibition: at 59 µM (top of the series) unless noted; further: nearly all actives have a fitted effect of over 75% in size
Chain of UniProt Q96KQ7 (Q96KQ7 whole entry, looked up): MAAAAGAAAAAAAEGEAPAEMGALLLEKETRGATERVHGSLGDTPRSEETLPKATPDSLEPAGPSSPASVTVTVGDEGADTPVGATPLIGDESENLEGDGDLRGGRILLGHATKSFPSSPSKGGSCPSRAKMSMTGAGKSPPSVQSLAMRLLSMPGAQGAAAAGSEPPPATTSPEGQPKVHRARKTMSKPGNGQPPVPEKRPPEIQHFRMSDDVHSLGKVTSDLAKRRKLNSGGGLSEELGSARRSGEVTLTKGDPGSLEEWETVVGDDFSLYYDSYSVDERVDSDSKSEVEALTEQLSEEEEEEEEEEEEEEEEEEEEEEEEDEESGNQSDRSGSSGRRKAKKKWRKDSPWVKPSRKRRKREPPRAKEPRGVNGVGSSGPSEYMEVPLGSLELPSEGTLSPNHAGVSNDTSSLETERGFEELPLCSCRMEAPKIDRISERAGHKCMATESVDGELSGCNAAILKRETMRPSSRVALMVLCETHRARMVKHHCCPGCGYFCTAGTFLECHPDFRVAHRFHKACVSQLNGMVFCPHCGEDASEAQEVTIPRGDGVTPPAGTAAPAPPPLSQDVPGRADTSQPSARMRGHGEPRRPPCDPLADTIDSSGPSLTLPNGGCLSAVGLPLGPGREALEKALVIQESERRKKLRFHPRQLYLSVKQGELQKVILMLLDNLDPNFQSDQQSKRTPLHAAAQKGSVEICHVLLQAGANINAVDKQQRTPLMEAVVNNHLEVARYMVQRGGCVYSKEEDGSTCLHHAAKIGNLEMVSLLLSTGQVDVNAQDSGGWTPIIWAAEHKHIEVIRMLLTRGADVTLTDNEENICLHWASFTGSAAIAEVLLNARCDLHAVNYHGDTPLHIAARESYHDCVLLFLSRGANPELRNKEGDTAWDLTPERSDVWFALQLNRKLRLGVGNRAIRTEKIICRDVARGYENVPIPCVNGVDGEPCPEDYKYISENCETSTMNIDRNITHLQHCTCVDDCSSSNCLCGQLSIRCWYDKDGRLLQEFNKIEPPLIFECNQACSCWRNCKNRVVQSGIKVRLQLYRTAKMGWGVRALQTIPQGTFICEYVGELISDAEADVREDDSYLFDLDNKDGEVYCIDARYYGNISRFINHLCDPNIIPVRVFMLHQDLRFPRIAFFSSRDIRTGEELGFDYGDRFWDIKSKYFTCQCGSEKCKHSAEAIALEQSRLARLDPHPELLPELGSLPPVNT
Method in brief: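 Quantitative HTS format: methyltransferase activity on a biotin-tagged H3K9 peptide is measured by AlphaScreen, using a rabbit anti-monomethyl-H3K9 antibody with streptavidin donor and anti-IgG acceptor beads. Final levels are 20 nM enzyme, 500 nM peptide, 20 uM SAM; 2 h RT.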
On the % scale 0 is the no-effect control and ±100 the full control effect; potency means the concentration at half of the fitted maximal effect; tags describe the fitted curve by direction and shape.

`Cc1cc(C)cc(OCC(=O)Nc2ccc(N3CCN(C(=O)c4ccco4)CC3)cc2)c1` was tested. Which activity, negative = inhibition did it give?
The activity, negative = inhibition was inconclusive: -69.5% [inhibitor] [at 12.7 µM].

Which Potency does the source give for `COc1ccccc1CNC(=O)COC(=O)c1ccccn1` here?
The Potency was inconclusive: 22.4 µM [inhibitor, full curve, poor fit].

For `CN1/C(=C\C=C2\N=C(c3ccc(F)cc3)OC2=O)C(C)(C)c2ccccc21`, which Potency is on record?
The Potency was active: 4.47 µM.

`CC1(C)CC(=O)c2cc(C(=O)NC3CCSC3=O)c(=O)n(-c3ccccc3)c2C1` (stereo unspecified) was tested. Which Potency did it give?
Its Potency is inconclusive: 89.1 µM [inhibitor, partial curve, poor fit].

With `Cc1ccc(C(=O)CCS(=O)(=O)c2ccc(F)cc2)cc1` as the compound, how does the Potency read?
The Potency was active: 31.6 µM.

How did the Potency turn out when `Cc1nc2cc(C(=O)NCCC3=CCCCC3)ccc2n1-c1ccc(Br)cc1` was run?
Its Potency is “inactive”.

How did the Potency turn out when `Cc1nc(NC(=O)COC(=O)C(NC(=O)c2ccco2)C(C)C)c(Cl)cc1Cl` (stereo unspecified) was run?
The Potency was inconclusive: 3.55 µM [inhibitor, partial curve, poor fit].

For `CCOc1ccc(C(=O)NCc2nnnn2-c2ccc(C)c(C)c2)cc1OCC`, which Potency is on record?
The Potency was “inactive”.

With `O=C(O)CSc1nnc(-c2ccncc2)n1C1CCCCC1` as the compound, how does the Potency read?
Its Potency is inconclusive: 0.316 µM [inhibitor, full curve, poor fit].

`CN(Cc1cc2ccccc2[nH]c1=O)C(=O)C1CCCCC1` was tested. Which Potency did it give?
The Potency was “inactive”.

With `O=C(CN(c1ccc(Cl)cc1)S(=O)(=O)c1ccc(Cl)c([N+](=O)[O-])c1)NCCc1ccc(F)cc1` as the compound, how does the Potency read?
The Potency was “inactive”.

`CN(C)c1ccc(C(=O)C(=O)c2ccccc2)cc1` was tested. Which Potency did it give?
Its Potency is inconclusive: 50.1 µM [inhibitor, partial curve, poor fit].

For `Cc1ncc(COP(=O)(O)O)c(C=O)c1O`, which Potency is on record?
The Potency was inconclusive: 20 µM [inhibitor, single point].

`COCCNC(=O)COC(=O)c1ccc(S(=O)(=O)N2CCOCC2)cc1` was tested. Which Potency did it give?
Its Potency is “inactive”.

With `CCCCCNC(=O)c1ccc2c(c1)ncn2-c1cccc(C)c1` as the compound, how does the Potency read?
Its Potency is “inactive”.

`O=C1COc2ccc(-c3cc(-c4ccc(Cl)cc4)c4c(n3)-c3ccccc3OC4)cc2N1` was tested. Which Potency did it give?
The Potency was “inactive”.

Which Potency does the source give for `COc1ccc(-c2nc3ccc([N+](=O)[O-])cc3[nH]2)cc1` here?
The Potency was inconclusive: 1.12 µM [inhibitor, full curve, poor fit].

How did the activity, negative = inhibition turn out when `CCN1C(=NCC(C)C)N[C@@H](c2ccccc2)[C@H](C(=O)OC)[C@H]1C` was run?
Its activity, negative = inhibition is inactive: -0.601% [at 12.7 µM].

`Cc1cccc(-n2c(CNC(=O)COc3ccccc3)nnc2SCC(=O)Nc2nccs2)c1` was tested. Which activity, negative = inhibition did it give?
The activity, negative = inhibition was inconclusive: -62.3% [inhibitor] [at 0.0925 µM].

`O=c1c2ccccc2nnn1CSc1nnc2sc3ccccc3n12` was tested. Which Potency did it give?
Its Potency is active: 7.08 µM.

Which Potency does the source give for `CCCN(CC(=O)Nc1ccccc1C)C(=O)c1ccc2c(c1)OCO2` here?
The Potency was inconclusive: 31.6 µM [inhibitor, single point].

With `CC(C)c1ccc(C2C(C(=O)c3ccco3)=C(O)C(=O)N2CCN2CCOCC2)cc1` (stereo unspecified) as the compound, how does the Potency read?
Its Potency is active: 50.1 µM.

How did the Potency turn out when `N#Cc1nc(-c2ccc(COc3ccccc3)o2)oc1NCc1cccnc1` was run?
The Potency was active: 12.6 µM.

For `O=c1oc2ccccc2c(Nc2ccccc2)c1[N+](=O)[O-]`, which Potency is on record?
Its Potency is inconclusive: 39.8 µM [inhibitor, single point].

`CCN(CC)CCCNC(=S)N1CCN(c2nc(-c3ccccc3)cs2)CC1` was tested. Which Potency did it give?
The Potency was inconclusive: 79.4 µM [inhibitor, single point].

With `CC(C)CNS(=O)(=O)c1cc(C(=O)O)c(Cl)cc1Cl` as the compound, how does the Potency read?
The Potency was inconclusive: 0.562 µM [inhibitor, full curve, poor fit].

With `Cc1ccc(S(=O)(=O)Nc2cc(=O)[nH]c(SCC(=O)Nc3ccccc3Cl)n2)cc1` as the compound, how does the Potency read?
The Potency was active: 56.2 µM.

For `O=C(O)CC/C(=N\Nc1ccccc1[N+](=O)[O-])c1cccs1`, which Potency is on record?
Its Potency is active: 35.5 µM.

Which Potency does the source give for `CCCN1CCN(S(=O)(=O)c2ccc(-c3cc(C)no3)s2)CC1` here?
The Potency was inconclusive: 79.4 µM [inhibitor, single point].

How did the Potency turn out when `CCn1c(C)cc(/C=C2\NC(=O)N(Cc3ccccc3)C2=O)c1C` was run?
Its Potency is active: 12.6 µM.

`CSc1ccc(CCNC(=O)C2=C(C)C(=O)OC23CCCCC3)cc1` was tested. Which Potency did it give?
Its Potency is “inactive”.

For `COCCSc1nc2sc3c(c2c(=O)n1-c1ccccc1)CCN(C)C3`, which Potency is on record?
The Potency was inconclusive: 89.1 µM [inhibitor, single point].

With `Cc1ccc(-n2c(Cn3c(C)nc4ccccc43)n[nH]c2=S)cc1` as the compound, how does the Potency read?
Its Potency is active: 10 µM.

For `O=C(CCN1C(=O)/C(=C\c2ccccc2F)SC1=S)N1CCCCC1`, which Potency is on record?
Its Potency is “inactive”.

`O=C(C(Cc1ccccc1)n1cccc1)N1CCCCCC1` (stereo unspecified) was tested. Which Potency did it give?
The Potency was inconclusive: 31.6 µM [inhibitor, single point].

With `CCCCn1c(N)c(N(CC(C)C)C(=O)C2CC(=O)N(c3ccccc3C(C)CC)C2)c(=O)[nH]c1=O` (stereo unspecified) as the compound, how does the Potency read?
The Potency was active: 79.4 µM.

With `CCOC(=O)c1cc2c(ccn2C)n1CC(=O)N1CCCC(C)C1` (stereo unspecified) as the compound, how does the Potency read?
The Potency was “inactive”.

Which Potency does the source give for `Cc1cccc(N2CCN(C(=O)Cn3ncc4c3-c3cc(C)ccc3OC4)CC2C)c1` (stereo unspecified) here?
Its Potency is inconclusive: 28.2 µM [inhibitor, single point].

With `CCOc1ccc(NCc2cccn2-c2nnc(N3CCC(C(=O)NCCCN4CCCCC4CC)CC3)s2)cc1` (stereo unspecified) as the compound, how does the Potency read?
The Potency was active: 50.1 µM.

`COc1cc(/C=C2\SC(c3ccc(C)cc3)=NC2=O)cc(OC)c1O` was tested. Which Potency did it give?
Its Potency is inconclusive: 5.62 µM [inhibitor, full curve, poor fit].

For `CCCS(=O)(=O)N1CCN(Cc2ccc3c(c2)c2ccccc2n3CC)CC1`, which Potency is on record?
Its Potency is inconclusive: 8.91 µM [inhibitor, full curve, poor fit].

For `C=CCN(C(=O)CNC(=O)c1ccco1)C(C(=O)NC1CCCCC1)c1cccnc1` (stereo unspecified), which Potency is on record?
Its Potency is “inactive”.

`Cc1ccccc1-c1nnc(CN2CCN(C(=O)c3ccco3)CC2)o1` was tested. Which Potency did it give?
The Potency was inconclusive: 79.4 µM [inhibitor, single point].

For `O=c1cc(CSc2nnnn2-c2ccc(O)cc2)nc2sccn12`, which Potency is on record?
Its Potency is inconclusive: 56.2 µM [inhibitor, partial curve, poor fit].

How did the Potency turn out when `CN(C)c1ccc(-c2nc3n(n2)C(c2cccnc2)C2=C(CC(C)(C)CC2=O)N3)cc1` (stereo unspecified) was run?
The Potency was inconclusive: 89.1 µM [inhibitor, single point].

Which Potency does the source give for `Cc1cc(Cl)c(OCCCCNC(C)(C)C)c(Br)c1` here?
Its Potency is active: 8.91 µM.
